Measured values from paper PMC4336329 (PLoS ONE, 2015).
Screen size: about 310,000 compounds; about 14,000 (4.5%) showed an effect of 50% or more. Effects have a minus sign here. This is one part of the list.

Each compound was assayed against human ether-à-go-go-related gene (hERG) potassium channel (human, UniProt Q12809) (assay: primary screen, population patch clamp on CHO cells stably expressing hERG).
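Further: peak tail current of the secondary pulse compared with the same well before compound.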

Chain of human ether-à-go-go-related gene (hERG) potassium channel (Q12809 whole entry, looked up): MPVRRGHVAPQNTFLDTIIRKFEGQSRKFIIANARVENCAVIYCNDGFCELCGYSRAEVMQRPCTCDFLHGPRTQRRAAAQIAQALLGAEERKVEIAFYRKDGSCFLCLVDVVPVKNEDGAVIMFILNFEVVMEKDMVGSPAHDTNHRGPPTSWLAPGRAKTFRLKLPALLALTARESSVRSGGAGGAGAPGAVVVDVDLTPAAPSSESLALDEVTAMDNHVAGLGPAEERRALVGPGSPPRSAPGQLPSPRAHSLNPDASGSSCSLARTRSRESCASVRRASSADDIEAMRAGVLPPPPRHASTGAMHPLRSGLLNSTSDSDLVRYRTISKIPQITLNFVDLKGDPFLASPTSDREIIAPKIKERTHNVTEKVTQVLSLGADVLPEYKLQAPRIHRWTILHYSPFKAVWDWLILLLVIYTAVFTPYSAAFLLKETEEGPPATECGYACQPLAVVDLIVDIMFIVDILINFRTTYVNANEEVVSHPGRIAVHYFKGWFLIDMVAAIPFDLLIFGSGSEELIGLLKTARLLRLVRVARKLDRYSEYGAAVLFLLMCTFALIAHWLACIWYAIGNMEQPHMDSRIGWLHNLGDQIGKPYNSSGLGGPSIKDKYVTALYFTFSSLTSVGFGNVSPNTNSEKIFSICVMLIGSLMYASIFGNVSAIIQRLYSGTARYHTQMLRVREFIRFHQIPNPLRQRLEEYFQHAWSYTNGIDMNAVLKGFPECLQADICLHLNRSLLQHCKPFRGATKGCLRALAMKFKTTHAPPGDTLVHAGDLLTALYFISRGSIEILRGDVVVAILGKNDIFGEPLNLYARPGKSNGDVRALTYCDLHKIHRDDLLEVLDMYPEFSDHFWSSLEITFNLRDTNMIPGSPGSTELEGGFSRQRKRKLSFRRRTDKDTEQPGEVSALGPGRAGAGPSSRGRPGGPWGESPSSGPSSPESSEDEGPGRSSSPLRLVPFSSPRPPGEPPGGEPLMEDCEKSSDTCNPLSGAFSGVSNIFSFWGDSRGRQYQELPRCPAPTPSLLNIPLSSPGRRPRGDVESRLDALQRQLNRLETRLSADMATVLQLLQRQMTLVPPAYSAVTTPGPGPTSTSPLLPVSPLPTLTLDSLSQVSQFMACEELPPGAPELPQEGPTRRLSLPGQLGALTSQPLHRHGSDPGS

| Compound | hERG current change (%, negative = inhibition) at 10uM |
| --- | --- |
| Cc1ccc(C(=O)NCCC(=O)N2CCC3(CC2)NCCc2[nH]cnc23)cc1 | 4.08% |
| O=C(Cn1nc2n(c1=O)-c1ccccc1SC2)N/N=C/c1ccncc1 | -1.97% |
| COc1ccc(-n2c(C)cc(-c3csc(NC(=O)c4ccc(S(=O)(=O)N(C)C)cc4)n3)c2C)cc1 | 5.99% |
| O=C(c1ccc([N+](=O)[O-])c(CS(=O)(=O)c2ccc(Cl)cc2)c1)N1CCCC1 | -31.4% |
| O=C(Nc1nc(-c2cccs2)c(-c2ccccc2)s1)c1ccco1 | 9.98% |
| Cn1c(CCCNC(=O)c2cccs2)nc2ccccc21 | -7.37% |
| Cc1ccc(CNC(=O)C2C3C=CC(C3)C2C(=O)O)cc1 (centres unmarked) | -3.26% |
| CC(CCc1ccccc1)NCc1ccc(Cl)cc1Cl.O=C(O)C(=O)O (centres unmarked) | -31.5% |
| COc1ccccc1OCCNC(=O)CN(c1cccc(C)c1)S(=O)(=O)c1ccccc1 | -30.8% |
| Cc1cccc(NC(=S)NC(=O)c2ccc(Br)o2)c1C | -14.3% |
| COc1ccc(C(=O)Nc2ccc3[nH]ccc3c2)cc1OC | 3.46% |
| Cc1ccc(-c2nc3ccccc3c(=O)n2NC(=S)N(C)C)cc1 | 2.01% |
| CC(C)c1cc(CNC(=O)c2ccc(OC3CCN(Cc4ccccn4)CC3)cc2)on1 | -16.1% |
| CCOc1ccc(/C=C/c2nc(C#N)c(NCCCOC)o2)cc1 | 4.86% |
| O=C(NCc1ccc2c(c1)OCO2)c1ccc(Br)cc1 | -19.8% |
| CN1C(=O)C2C[C@@]3(Br)c4ccccc4N(OOSc4ccccc4)[C@H]3N2C(=O)[C@@H]1Cc1ccccc1 (some centres unmarked) | -13.6% |
| O=C1/C(=C/c2ccncc2)N2CCC1CC2 | 2.32% |
| Br.COc1ccc(Nc2nc(-c3ccc(OC)cc3)cs2)cc1 | 19.2% |
| COc1ccc(Cl)cc1S(=O)(=O)N1CCCC(C(=O)NCC(N)=O)C1 (centres unmarked) | -9.16% |

| Compound | hERG current change (%, negative = inhibition) at 10uM |
| --- | --- |
| O=C(Nc1cccc(-c2cn3cccnc3n2)c1)c1ccco1 | 8.04% |
| O=C(CSc1nc2c(sc3ccccc32)c(=O)n1Cc1ccccc1)NCC1CCCO1 (centres unmarked) | 16.8% |
| O=C(O)Cn1c2c(c3ccccc31)CCCC2 | 7.39% |
| COc1cc(C2c3[nH]c4ccccc4c3C[C@H]3C(=O)N(C4CC4)CC(=O)N23)ccc1OC(C)C (some centres unmarked) | -36.9% |
| COc1ccc(/C=N/NC(=S)Nc2ccccc2)cc1COc1ccc(F)cc1 | -4.64% |
| c1ccc2oc(C3=NNC(=NC4CC4)SC3)cc2c1 | -58.5% |
| c1ccc(Cc2nn3c(Cn4cnc5ccccc54)nnc3s2)cc1 | -17.7% |
| NC(=O)c1ccccc1NCC(=O)c1ccc(F)cc1 | -35.2% |
| O=S(=O)(c1ccc(F)cc1)c1nc(-c2ccco2)oc1Nc1ccccc1 | -9% |
| CC(C)(C)c1ccc(S(=O)(=O)NCC(=O)N2CCCC2)cc1 | 7.42% |
| Cc1cc(-c2ccccc2)nc(N(C)NC(=O)c2ccc(Cl)cc2)c1S(C)(=O)=O | 0.236% |
| CC1=C(C)CC(C(=O)NCC(=O)c2ccccc2)C(C(=O)O)C1 (centres unmarked) | -3.55% |
| CN(C)c1ccc(N/C=C/C(=O)c2ccccc2)cc1 | 4.66% |
| Cc1ccccc1C(=O)c1cccn1CC(=O)NCc1ccc(Cl)cc1 | -7.19% |
| COc1ccc(OC)c(NC(=O)CNC(c2ccccc2)c2ccccc2)c1 | 14.1% |
| CCOc1ccc2c(c1)ncn2Cc1ccccc1 | 8.33% |
| O=C(c1ccco1)c1cc2c(ccc3ccccc32)oc1=O | 2.17% |
| CCN(c1ccc(OC)cc1)S(=O)(=O)c1csc(C(N)=O)c1 | 6.68% |
| Cn1c(=O)c2c(nc(N3CCOCC3)n2CCSc2ncccn2)n(C)c1=O | 0.639% |

| Compound | hERG current change (%, negative = inhibition) at 10uM |
| --- | --- |
| COc1ccc(NC(=O)c2nn(C)c(=O)c3ccccc23)cc1S(=O)(=O)Nc1ccccc1Cl | 26% |
| CCn1cnnc1SCC(=O)NCC1COc2ccccc2O1 (centres unmarked) | 13.6% |
| CCC1CCc2sc(C(=O)O)cc2C1 (centres unmarked) | -15.7% |
| CC(C)CNS(=O)(=O)c1cc(C(=O)OCC(=O)N2CCOCC2)c(Cl)cc1Cl | -17.8% |
| CN(Cc1cnn(C)c1)S(=O)(=O)c1cccc([N+](=O)[O-])c1 | 6.52% |
| CCC(Sc1nc2cc3c(cc2c(=O)n1Cc1ccco1)OCO3)C(=O)Nc1cccc(OC)c1 (centres unmarked) | -4.76% |
| Cc1sc2ncnc(OCC(=O)c3ccc(S(=O)(=O)N4CCCC4)cc3)c2c1C | -4.53% |
| O=C(O)c1cc(NN=Nc2ccc(Br)cc2)cc([N+](=O)[O-])c1 | 10.7% |
| COc1ccc(C(=O)NNC2=NC(C)(C)Cc3ccccc32)cc1 | 20.6% |
| O=C(CNC(=O)c1ccc(OC(F)F)cc1)NC1CCCc2ccccc21 (centres unmarked) | -16.2% |
| Nc1nc(SCC(=O)NC2CCCc3ccccc32)n[nH]1 (centres unmarked) | -10.1% |
| CCn1c(SCC(=O)Nc2ccc(F)cc2)nc2ccccc2c1=O | 1.12% |
| CCCc1cc(=O)oc2c(C)c(OCC(=O)Nc3cccnc3)ccc12 | -63.6% |
| CCOc1ccccc1CN1CCN(C2CCOCC2)CC1CCO (centres unmarked) | 9.47% |
| CCOC(=O)c1cnc(SC2CC(=O)N(c3cccc(OC)c3)C2=O)nc1N (centres unmarked) | -17.4% |
| CN(C)CCNC(=O)COc1cccc(Cl)c1 | 8.52% |
| COc1ccc(-n2c(=S)[nH]c3ccccc3c2=S)cc1 | 32% |
| CC(C)[C@H](NC(=O)CCCn1nnc2ccccc2c1=O)C(=O)O | 20.9% |
